Results on one molecule are retold here after the supplement of paper PMC8728848.

This is one part of the list.

Experiment in all cases: glycan array binding signal (z-score within array); higher = stronger binding
What all share (details): glycan notation: IUPAC condensed, linker removed

Assay [1] concerns the target Gal(b1-4)GlcNAc(b1-2)[Gal(b1-4)GlcNAc(b1-4)]Man(a1-3)[Gal(b1-4)GlcNAc(b1-2)Man(a1-6)]Man(b1-4)GlcNAc(b1-4)GlcNAc. In a few lines: (§1)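 The binding signal is a Z-score computed within each array. Data were drawn from 3228 arrays in the Consortium for Functional Glycomics database, restricted to those with a known protein sequence. Scores were averaged over arrays of the same protein sequence at different concentrations or buffers, and over linkers, and negative values can be taken as non-binding.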

The target in assay [2] is Gal(b1-4)GlcNAc(b1-2)[Gal(b1-4)GlcNAc(b1-4)]Man(a1-3)[Gal(b1-4)GlcNAc(b1-2)[Gal(b1-4)GlcNAc(b1-6)]Man(a1-6)]Man(b1-4)GlcNAc(b1-4)GlcNAc. In a few lines:
as §1

In assay [3] the target is Gal(b1-4)GlcNAc(b1-2)[Gal(b1-4)GlcNAc(b1-4)]Man(a1-3)[GlcNAc(b1-4)][Gal(b1-4)GlcNAc(b1-2)Man(a1-6)]Man(b1-4)GlcNAc(b1-4)GlcNAc. In a few lines: as §1
In assay [4] the target is Gal(b1-4)GlcNAc(b1-2)[Gal(b1-4)GlcNAc(b1-4)]Man(a1-3)[GlcNAc(b1-4)][Gal(b1-4)GlcNAc(b1-2)[Gal(b1-4)GlcNAc(b1-6)]Man(a1-6)]Man(b1-4)GlcNAc(b1-4)GlcNAc. In a few lines:
as §1

Assay [5] concerns the target Gal(b1-4)GlcNAc(b1-2)[Gal(b1-4)GlcNAc(b1-6)]Man(a1-6)[Gal(b1-4)GlcNAc(b1-2)Man(a1-3)]Man(b1-4)GlcNAc(b1-4)GlcNAc. An outline of the steps: as §1
Assay [6] deals with Gal(b1-4)GlcNAc(b1-2)[Gal(b1-4)GlcNAc(b1-6)]Man(a1-6)[Gal(b1-4)GlcNAc(b1-2)Man(a1-3)]Man(b1-4)GlcNAc(b1-4)[Fuc(a1-6)]GlcNAc. An outline of the steps:
as §1

The target of assay [7] is Gal(b1-4)GlcNAc(b1-2)[Gal(b1-4)GlcNAc(b1-6)]Man(a1-6)[GlcNAc(b1-4)][Gal(b1-4)GlcNAc(b1-2)Man(a1-3)]Man(b1-4)GlcNAc(b1-4)GlcNAc. In a few lines:
as §1

Assay [8] addresses Gal(b1-4)GlcNAc(b1-2)[Gal(b1-4)GlcNAc(b1-6)]Man(a1-6)[GlcNAc(b1-4)][Gal(b1-4)GlcNAc(b1-2)[Gal(b1-4)GlcNAc(b1-4)]Man(a1-3)]Man(b1-4)GlcNAc(b1-4)[Fuc(a1-6)]GlcNAc. An outline of the steps:
as §1

Assay [9] deals with Gal(b1-4)GlcNAc(b1-3)Gal(b1-3)GalNAc. In a few lines: as §1
Assay [10] deals with Gal(b1-4)GlcNAc(b1-3)Gal(b1-3)GlcNAc. An outline of the steps:
as §1

The target of assay [11] is Gal(b1-4)GlcNAc(b1-3)Gal(b1-4)Glc. An outline of the steps: as §1
For assay [12], the target named is Gal(b1-4)GlcNAc(b1-3)Gal(b1-4)GlcNAc. In a few lines:
as §1

Assay [13] concerns the target Gal(b1-4)GlcNAc(b1-3)Gal(b1-4)GlcNAc(b1-2)Man(a1-3)[Gal(b1-4)GlcNAc(b1-3)Gal(b1-4)GlcNAc(b1-2)Man(a1-6)]Man(b1-4)GlcNAc(b1-4)GlcNAc. An outline of the steps: as §1
The target in assay [14] is Gal(b1-4)GlcNAc(b1-3)Gal(b1-4)GlcNAc(b1-2)Man(a1-3)[Gal(b1-4)GlcNAc(b1-3)Gal(b1-4)GlcNAc(b1-2)Man(a1-6)]Man(b1-4)GlcNAc(b1-4)[Fuc(a1-6)]GlcNAc. In a few lines:
as §1

Assay [15] addresses Gal(b1-4)GlcNAc(b1-3)Gal(b1-4)GlcNAc(b1-2)[Gal(b1-4)GlcNAc(b1-3)Gal(b1-4)GlcNAc(b1-6)]Man(a1-6)[Gal(b1-4)GlcNAc(b1-3)Gal(b1-4)GlcNAc(b1-2)Man(a1-3)]Man(b1-4)GlcNAc(b1-4)GlcNAc. In a few lines: as §1
In assay [16] the target is Gal(b1-4)GlcNAc(b1-3)Gal(b1-4)GlcNAc(b1-2)[Gal(b1-4)GlcNAc(b1-3)Gal(b1-4)GlcNAc(b1-6)]Man(a1-6)[Gal(b1-4)GlcNAc(b1-3)Gal(b1-4)GlcNAc(b1-2)Man(a1-3)]Man(b1-4)GlcNAc(b1-4)[Fuc(a1-6)]GlcNAc. In a few lines: as §1
The target in assay [17] is Gal(b1-4)GlcNAc(b1-3)Gal(b1-4)GlcNAc(b1-3)Gal(b1-4)GlcNAc. An outline of the steps:
as §1

Assay [18] concerns the target Gal(b1-4)GlcNAc(b1-3)Gal(b1-4)GlcNAc(b1-3)Gal(b1-4)GlcNAc(b1-2)Man(a1-3)[Gal(b1-4)GlcNAc(b1-3)Gal(b1-4)GlcNAc(b1-3)Gal(b1-4)GlcNAc(b1-2)Man(a1-6)]Man(b1-4)GlcNAc(b1-4)GlcNAc. In a few lines: as §1
The target of assay [19] is Gal(b1-4)GlcNAc(b1-3)Gal(b1-4)GlcNAc(b1-3)Gal(b1-4)GlcNAc(b1-2)Man(a1-3)[Gal(b1-4)GlcNAc(b1-3)Gal(b1-4)GlcNAc(b1-3)Gal(b1-4)GlcNAc(b1-2)Man(a1-6)]Man(b1-4)GlcNAc(b1-4)[Fuc(a1-6)]GlcNAc. In a few lines:
as §1

In assay [20] the target is Gal(b1-4)GlcNAc(b1-3)Gal(b1-4)GlcNAc(b1-3)Gal(b1-4)GlcNAc(b1-2)[Gal(b1-4)GlcNAc(b1-3)Gal(b1-4)GlcNAc(b1-3)Gal(b1-4)GlcNAc(b1-6)]Man(a1-6)[Gal(b1-4)GlcNAc(b1-3)Gal(b1-4)GlcNAc(b1-3)Gal(b1-4)GlcNAc(b1-2)Man(a1-3)]Man(b1-4)GlcNAc(b1-4)[Fuc(a1-6)]GlcNAc. In a few lines: as §1
For assay [21], the target named is Gal(b1-4)GlcNAc(b1-3)Gal(b1-4)GlcNAc(b1-3)Gal(b1-4)GlcNAc(b1-3)Gal(b1-4)GlcNAc(b1-2)Man(a1-3)[Gal(b1-4)GlcNAc(b1-3)Gal(b1-4)GlcNAc(b1-3)Gal(b1-4)GlcNAc(b1-3)Gal(b1-4)GlcNAc(b1-2)Man(a1-6)]Man(b1-4)GlcNAc(b1-4)GlcNAc. An outline of the steps:
as §1

Assay [22] deals with Gal(b1-4)GlcNAc(b1-3)Gal(b1-4)GlcNAc(b1-3)Gal(b1-4)GlcNAc(b1-3)Gal(b1-4)GlcNAc(b1-2)Man(a1-3)[Gal(b1-4)GlcNAc(b1-3)Gal(b1-4)GlcNAc(b1-3)Gal(b1-4)GlcNAc(b1-3)Gal(b1-4)GlcNAc(b1-2)Man(a1-6)]Man(b1-4)GlcNAc(b1-4)[Fuc(a1-6)]GlcNAc. In a few lines:
as §1

B1: Fm1D (Escherichia coli) (protein)
chain: FSCNVDGGSSIGAGTTSVYVNLDPVIQPGQNLVVDLSQHISCWNDYGGWYDTDHINLVQGSAFAGSLQSYKGSLYWNNVTYPFPLTTNTNVLDIGDKTPMPLPLKLYITPVGAAGGVVIKAGEVIARIHMYKIATLGSGNPRNFTWNIISNNSVVMPTHHHHHH
On to B1, for which the “glycan array binding signal (z-score)” value was -0.142 in assay [1]; -0.139 in [2]; -0.147 in assay [3]; -0.146 in [4]; -0.146 in assay [5]; -0.14 in assay [6]. Besides, the “glycan array binding signal (z-score)” value in assay [7] was -0.151; in [8] it was -0.144; in [9] it was -0.145; in assay [10] it was -0.144; in assay [11], -0.147; in assay [12] it was -0.146. In addition, the “glycan array binding signal (z-score)” value in assay [13] is -0.138; in assay [14] it was -0.138; in assay [15], -0.128; in [16], -0.14; in assay [17], -0.143; in [18], -0.136. Further, the “glycan array binding signal (z-score)” value is -0.14 in assay [19], -0.133 in assay [20], -0.142 in [21] and -0.131 in assay [22].
